Experimental findings from US20060140929A1 (Merck KGaA, published 2006) are described below.

The target of this assay is thrombin. Nature of the assay: cell-based or functional assay.

B1: hirudin mutein M 18 (I29D L30R) (other)
chain: VVYTDCTESGQNLCLCEGSVVCGQGNKCILGSDGEKNQCVTGEGTPKPESHNDGDFEEIPEEYLQ
Take B1: the “Relative Activity (ratio of variant IC50/WT IC50), chromogenic thrombin inhibition assay” value was found to be 2.5 ratio.
